Some of the results follow.
Legend:
Test in all cases: glycan array binding signal (z-score within array); higher = stronger binding
Details in all cases: glycan notation: IUPAC condensed, linker removed
[1] = target: Neu5Ac(a2-3)Gal(b1-3)GlcNAc6S
Summary of the method: (§1)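 Glycan array data were curated from 3228 arrays in the Consortium for Functional Glycomics database and kept only where the protein sequence was available. Glycan names were converted to IUPAC-condensed notation, and columns mapping to the same glycan were averaged. The binding signal is a within-array Z-score, averaged across arrays of the same protein sequence at different concentrations or buffers and across linkers. Negative Z-scores can be read as non-binding.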

[2] = target: Neu5Ac(a2-3)Gal(b1-3)[Fuc(a1-4)]GlcNAc
Summary of the method: as §1

[3] = target: Neu5Ac(a2-3)Gal(b1-3)[Fuc(a1-4)]GlcNAc(b1-3)Gal(b1-3)[Fuc(a1-4)]GlcNAc
Summary of the method: as §1

[4] = target: Neu5Ac(a2-3)Gal(b1-3)[Fuc(a1-4)]GlcNAc(b1-3)Gal(b1-4)[Fuc(a1-3)]GlcNAc
Summary of the method: as §1

[5] = target: Neu5Ac(a2-3)Gal(b1-3)[GlcNAc(b1-6)]GalNAc
Summary of the method: as §1

[6] = target: Neu5Ac(a2-3)Gal(b1-3)[Neu5Ac(a2-6)]GalNAc
Summary of the method: as §1

[7] = target: Neu5Ac(a2-3)Gal(b1-3)[Neu5Ac(a2-6)]GlcNAc(b1-3)[Fuc(a1-3)[Gal(b1-4)]GlcNAc(b1-6)]Gal(b1-4)Glc
Summary of the method: as §1

[8] = target: Neu5Ac(a2-3)Gal(b1-3)]Neu5Ac(a2-3)Gal(b1-4)]GlcNAc
Summary of the method: as §1

Neu5Ac(a2-3)Gal(b1-4)Glc = target: Neu5Ac(a2-3)Gal(b1-4)Glc
Summary of the method: as §1

[9] = target: Neu5Ac(a2-3)Gal(b1-4)GlcNAc
Summary of the method: as §1

[10] = target: Neu5Ac(a2-3)Gal(b1-4)GlcNAc(b1-2)Man
Summary of the method: as §1

[11] = target: Neu5Ac(a2-3)Gal(b1-4)GlcNAc(b1-2)Man(a1-3)[GlcNAc(b1-4)][Neu5Ac(a2-3)Gal(b1-4)GlcNAc(b1-2)Man(a1-6)]Man(b1-4)GlcNAc(b1-4)GlcNAc
Summary of the method: as §1

[12] = target: Neu5Ac(a2-3)Gal(b1-4)GlcNAc(b1-2)Man(a1-3)[Neu5Ac(a2-3)Gal(b1-4)GlcNAc(b1-2)Man(a1-6)]Man(b1-4)GlcNAc(b1-4)GlcNAc
Summary of the method: as §1

[13] = target: Neu5Ac(a2-3)Gal(b1-4)GlcNAc(b1-2)Man(a1-3)[Neu5Ac(a2-3)Gal(b1-4)GlcNAc(b1-2)Man(a1-6)]Man(b1-4)GlcNAc(b1-4)[Fuc(a1-6)]GlcNAc
Summary of the method: as §1

[14] = target: Neu5Ac(a2-3)Gal(b1-4)GlcNAc(b1-2)Man(a1-3)[Neu5Ac(a2-6)Gal(b1-4)GlcNAc(b1-2)Man(a1-6)]Man(b1-4)GlcNAc(b1-4)GlcNAc
Summary of the method: as §1

[15] = target: Neu5Ac(a2-3)Gal(b1-4)GlcNAc(b1-2)[Neu5Ac(a2-3)Gal(b1-4)GlcNAc(b1-4)]Man(a1-3)[GlcNAc(b1-4)][Neu5Ac(a2-3)Gal(b1-4)GlcNAc(b1-2)[Neu5Ac(a2-3)Gal(b1-4)GlcNAc(b1-6)]Man(a1-6)]Man(b1-4)GlcNAc(b1-4)GlcNAc
Summary of the method: as §1

[16] = target: Neu5Ac(a2-3)Gal(b1-4)GlcNAc(b1-2)[Neu5Ac(a2-3)Gal(b1-4)GlcNAc(b1-4)]Man(a1-3)[GlcNAc(b1-4)][Neu5Ac(a2-3)Gal(b1-4)GlcNAc(b1-4)Man(a1-6)]Man(b1-4)GlcNAc(b1-4)GlcNAc
Summary of the method: as §1

[17] = target: Neu5Ac(a2-3)Gal(b1-4)GlcNAc(b1-2)[Neu5Ac(a2-3)Gal(b1-4)GlcNAc(b1-6)]Man(a1-6)[Neu5Ac(a2-3)Gal(b1-4)GlcNAc(b1-2)Man(a1-3)]Man(b1-4)GlcNAc(b1-4)GlcNAc
Summary of the method: as §1

[18] = target: Neu5Ac(a2-3)Gal(b1-4)GlcNAc(b1-2)[Neu5Ac(a2-3)Gal(b1-4)GlcNAc(b1-6)]Man(a1-6)[Neu5Ac(a2-3)Gal(b1-4)GlcNAc(b1-2)Man(a1-3)][GlcNAc(b1-4)]Man(b1-4)GlcNAc(b1-4)GlcNAc
Summary of the method: as §1

[19] = target: Neu5Ac(a2-3)Gal(b1-4)GlcNAc(b1-3)Gal
Summary of the method: as §1

[20] = target: Neu5Ac(a2-3)Gal(b1-4)GlcNAc(b1-3)Gal(b1-3)GlcNAc
Summary of the method: as §1

[21] = target: Neu5Ac(a2-3)Gal(b1-4)GlcNAc(b1-3)Gal(b1-4)GlcNAc
Summary of the method: as §1

[22] = target: Neu5Ac(a2-3)Gal(b1-4)GlcNAc(b1-3)Gal(b1-4)GlcNAc(b1-2)Man(a1-3)[Neu5Ac(a2-3)Gal(b1-4)GlcNAc(b1-3)Gal(b1-4)GlcNAc(b1-2)Man(a1-6)]Man(b1-4)GlcNAc(b1-4)GlcNAc
Summary of the method: as §1

[23] = target: Neu5Ac(a2-3)Gal(b1-4)GlcNAc(b1-3)Gal(b1-4)GlcNAc(b1-3)Gal(b1-4)GlcNAc
Summary of the method: as §1

[24] = target: Neu5Ac(a2-3)Gal(b1-4)GlcNAc(b1-3)Gal(b1-4)GlcNAc(b1-3)Gal(b1-4)GlcNAc(b1-2)Man(a1-3)[Neu5Ac(a2-3)Gal(b1-4)GlcNAc(b1-3)Gal(b1-4)GlcNAc(b1-3)Gal(b1-4)GlcNAc(b1-2)Man(a1-6)]GalNAc
Summary of the method: as §1

[25] = target: Neu5Ac(a2-3)Gal(b1-4)GlcNAc(b1-3)Gal(b1-4)GlcNAc(b1-3)GalNAc
Summary of the method: as §1

[26] = target: Neu5Ac(a2-3)Gal(b1-4)GlcNAc(b1-3)Gal(b1-4)GlcNAc(b1-3)[Neu5Ac(a2-3)Gal(b1-4)GlcNAc(b1-3)Gal(b1-4)GlcNAc(b1-6)]GalNAc
Summary of the method: as §1

[27] = target: Neu5Ac(a2-3)Gal(b1-4)GlcNAc(b1-3)Gal(b1-4)GlcNAc(b1-6)[Gal(b1-3)]GalNAc
Summary of the method: as §1

[28] = target: Neu5Ac(a2-3)Gal(b1-4)GlcNAc(b1-3)Gal(b1-4)[Fuc(a1-3)]GlcNAc
Summary of the method: as §1

[29] = target: Neu5Ac(a2-3)Gal(b1-4)GlcNAc(b1-3)GalNAc
Summary of the method: as §1

B1: AT5G01260(PC)(40) (Arabidopsis thaliana), Q9LFB0 (protein)
chain: MIGIGRTLTSSSPSKIILEDLPPGIYRYGTEIFTSVPRKTFHHIKFLRLDSAQSSRILKPVPLRSSSIKDSQVNVEDEEIEASNKTVRVRFQLRKECVFGEHFFIVGDDPVFGGLWDPETALPLNWSDGNVWTVDLDLPVGRLVEFKLLLKAQTGEILWQPGPNRALETWETNKTIRICEDWDNADLQMMIEEDFVPYTNISSIGSEDEDEVLGSVQQNSSVVAVENAGYVSDESAQNSSFSIQSEKTMEPSNGALTAREVIKEAMFTEEESPVLVPGLIPLSDLDNEQVEVINEGKAETFPEVDKKQEPKAERNKKAKVKAISLFEKSEQEAVKSVEQRQYNAVEEEQQRLETEPLGTPDVLFENDIQWGRRTLYKLLSNFRLF
For B1, the “glycan array binding signal (z-score)” value [1] was 0.248, the “glycan array binding signal (z-score)” value [2] was -0.252 and the “glycan array binding signal (z-score)” value [3] was -0.068. For the same binder, the “glycan array binding signal (z-score)” value [4] was 0.682, the “glycan array binding signal (z-score)” value [5] was -0.322 and the “glycan array binding signal (z-score)” value [6] was -0.391. For the same binder, the “glycan array binding signal (z-score)” value [7] was 0.026, the “glycan array binding signal (z-score)” value [8] was -0.372 and the “glycan array binding signal (z-score)” value (Neu5Ac(a2-3)Gal(b1-4)Glc) was 0.937. The “glycan array binding signal (z-score)” value [9] was -0.15, the “glycan array binding signal (z-score)” value [10] was 0.436 and the “glycan array binding signal (z-score)” value [11] was -0.11. The “glycan array binding signal (z-score)” value [12] was -0.324, the “glycan array binding signal (z-score)” value [13] was 0.636 and the “glycan array binding signal (z-score)” value [14] was -0.166. The “glycan array binding signal (z-score)” value [15] was 0.225, the “glycan array binding signal (z-score)” value [16] was 0.282 and the “glycan array binding signal (z-score)” value [17] was -0.35. The “glycan array binding signal (z-score)” value [18] was -0.434, the “glycan array binding signal (z-score)” value [19] was -0.844 and the “glycan array binding signal (z-score)” value [20] was 0.186. The “glycan array binding signal (z-score)” value [21] was -0.47, the “glycan array binding signal (z-score)” value [22] was -0.244 and the “glycan array binding signal (z-score)” value [23] was -0.063. For the same binder, the “glycan array binding signal (z-score)” value [24] was 0.092, the “glycan array binding signal (z-score)” value [25] was -0.564 and the “glycan array binding signal (z-score)” value [26] was 0.326. The “glycan array binding signal (z-score)” value [27] was -0.3, the “glycan array binding signal (z-score)” value [28] was 0.192 and the “glycan array binding signal (z-score)” value [29] was -0.282.
